# The campaign covered roughly 410,000 compounds. About 6,400 (1.6%) were called active. The shares of active, inactive and inconclusive entries below differ from those in the screen. Calls follow the shape of the dose curve; as a rule, active = well fitted inhibition curve with a large enough effect; inconclusive = small, poorly fitted or top-dose-only effect; inactive = no such curve, though single readings can be large or run the other way. No potency is given beside an inconclusive call; the fits are too rough.
# Target: Glucagon-like peptide 1 receptor (Homo sapiens) (UniProt P43220)
# Chain of UniProt P43220 (P43220 whole entry, looked up): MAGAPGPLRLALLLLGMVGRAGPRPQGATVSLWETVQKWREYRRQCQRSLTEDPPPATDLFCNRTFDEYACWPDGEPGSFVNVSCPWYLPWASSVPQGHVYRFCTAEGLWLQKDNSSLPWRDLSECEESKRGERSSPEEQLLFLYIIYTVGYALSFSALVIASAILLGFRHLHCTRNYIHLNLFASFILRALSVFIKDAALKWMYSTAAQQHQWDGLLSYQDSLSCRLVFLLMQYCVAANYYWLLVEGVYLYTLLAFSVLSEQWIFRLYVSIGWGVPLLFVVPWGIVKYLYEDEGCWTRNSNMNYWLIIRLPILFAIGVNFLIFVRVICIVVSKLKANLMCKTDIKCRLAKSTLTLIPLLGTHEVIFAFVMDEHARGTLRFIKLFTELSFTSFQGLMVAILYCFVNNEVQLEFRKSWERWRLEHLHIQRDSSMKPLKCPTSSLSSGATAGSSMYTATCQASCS
# Assay: qHTS of GLP-1 Receptor Inverse Agonists (Inhibition Mode); also: nearly all actives have a fitted effect of over 55% in size
# Conditions: HEK293 GLP-1R CRE-luciferase, luminescence, 24 h, GLP-1R form is constitutively active; activity change, negative = inhibition: at 38.3 µM (top of the series) unless noted
# In short: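 Stable HEK293 clone (constitutively active GLP-1R + cAMP-response luciferase); 200 cells/uL plated, 12 h pre-culture, compound 24 hr, 37 deg C/5% CO2; detection reagent 12 min RT; luminescence.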
# % is scaled to controls: 0 for no effect and ±100 for the full control effect; potency is read from the fitted curve at half-maximal effect; tags tell the direction and shape of the fitted curve.
SMILES,Potency,"activity change, negative = inhibition"
CCC(C(=O)OC)n1cnc2scc(-c3ccc(C)cc3)c2c1=O (stereo unspecified),"inconclusive [inhibitor, single point]",
Cc1ccc(C(=O)N2CCN(c3cnn(C)c(=O)c3Cl)CC2)cc1,"inconclusive [inhibitor, partial curve]",
O=C(CN1C(=O)S/C(=C\c2cc(Cl)c(O)c(Cl)c2)C1=O)Nc1ccccc1,"inconclusive [inhibitor, partial curve]",
COc1ccc(CSc2nc(N3CCOCC3)c3c(c2C#N)CC(C)(C)OC3)cc1,,inactive: -7.76%
COc1cccc(CN(C)C(=O)[C@@H](NC(=O)c2ccc(C)cc2)C(C)C)c1,"inconclusive [inhibitor, single point]",
O=S(=O)(c1cc(Cl)ccc1Cl)N1CCN(Cc2ccc3c(c2)OCO3)CC1,"inconclusive [inhibitor, single point]",
CC(C)Cn1c(N)c(C(=O)NCc2cccs2)c2nc3ccccc3nc21,"inconclusive [inhibitor, partial curve, poor fit]",
Cc1ccc(S(=O)(=O)c2c(O)cc(C)c(NS(=O)(=O)c3ccc(Cl)cc3)c2C)cc1,"inconclusive [inhibitor, single point]",
CC(C)Oc1cc(F)ccc1-c1cc(C(=O)NCc2cccs2)[nH]n1,"inconclusive [inhibitor, single point]",
COc1ccccc1/C=C/C(=O)N1CCC(c2ccccc2)C1 (stereo unspecified),"inconclusive [inhibitor, single point]",
Cc1sc2ncnc(N/N=C/c3ccccc3O)c2c1C,"inconclusive [inhibitor, full curve, poor fit]",
Cc1cc(C)cc(OCc2nnc(SCC(=O)c3ccc(Br)cc3)o2)c1,"inconclusive [inhibitor, partial curve, poor fit]",
Cc1c(C(=O)OCC(=O)N2CC(C)OC(C)C2)oc2ccc(Br)cc12 (stereo unspecified),"inconclusive [inhibitor, single point]",
Cc1ccc(C)c(S(=O)(=O)N2CCN(C(=O)CSC(=S)N3CCCC3)CC2)c1,"inconclusive [inhibitor, single point]",
Cc1ccc(CN(C(=O)COc2cc(C)c(Cl)c(C)c2)c2ccccn2)o1,"inconclusive [inhibitor, single point]",
CC(=O)N1CCc2cc(Br)cc(S(=O)(=O)CCC(=O)N3CCN(c4ccccc4Cl)CC3)c21,"inconclusive [inhibitor, full curve, poor fit]",

# Source: PubChem BioAssay AID624417 (National Center for Advancing Translational Sciences (NCATS), 2012)
